# In paper PMC6919601, “Identification of Plasmodium dipeptidyl aminopeptidase allosteric inhibitors by high throughput screening” (PLoS ONE, 2019):
# Among all 110,000 compounds or so, about 230 (0.21%) showed an effect of 50% or more. The list shows a part of the results.
# Target: DPAP1 (Plasmodium falciparum, UniProt Q8IIJ9)
# Assay: primary screen, percent inhibition; read by cleavage of a fluorogenic dipeptide substrate; higher = more effect of the substance
# Parameters: species or system P. falciparum D10 trophozoite lysates; single well
# 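Also: 30 min substrate incubation versus DMSO and 10 µM JCP410 controls.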
# Chain of DPAP1 (Q8IIJ9 whole entry, looked up): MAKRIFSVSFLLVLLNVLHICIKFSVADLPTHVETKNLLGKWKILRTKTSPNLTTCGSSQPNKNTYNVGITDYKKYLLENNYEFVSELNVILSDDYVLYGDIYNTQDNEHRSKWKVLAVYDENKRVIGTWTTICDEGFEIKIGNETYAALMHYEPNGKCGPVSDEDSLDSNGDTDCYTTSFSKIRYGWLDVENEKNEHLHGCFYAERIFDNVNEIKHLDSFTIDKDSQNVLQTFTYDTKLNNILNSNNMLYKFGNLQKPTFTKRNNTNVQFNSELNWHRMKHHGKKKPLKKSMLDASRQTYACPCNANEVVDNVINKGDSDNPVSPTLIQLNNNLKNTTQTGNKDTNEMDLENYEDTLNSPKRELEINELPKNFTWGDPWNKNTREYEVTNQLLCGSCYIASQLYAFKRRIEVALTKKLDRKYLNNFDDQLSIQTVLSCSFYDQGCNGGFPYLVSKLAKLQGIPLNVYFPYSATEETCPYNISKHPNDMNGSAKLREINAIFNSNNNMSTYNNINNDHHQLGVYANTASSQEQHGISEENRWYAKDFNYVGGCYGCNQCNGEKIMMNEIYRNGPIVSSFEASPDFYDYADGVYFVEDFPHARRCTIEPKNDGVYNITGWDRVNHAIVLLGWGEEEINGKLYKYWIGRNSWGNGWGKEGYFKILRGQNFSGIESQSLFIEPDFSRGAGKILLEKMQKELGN
row,Compound,% Inhibition @ 10 uM [%]
1,CCS(=O)(=O)N1CCC2(CC1)OC(=O)C(C)=C2C(=O)NCCC(C)C,2.39
2,COc1ccc(CCN2C(=O)c3cccc4cccc(c34)C2=O)cc1OC,5.46
3,COCCCNC(=O)C1CCCN(Cc2cnn(-c3ccccc3)c2-n2cccc2)C1 (stereo not shown),5.42
4,Cc1ccccc1C(=O)c1cccn1CC(=O)NC(C)C,-2.25
5,Cc1ccc(NCc2nc3ccccc3n2C)cc1,-1.66
6,Cc1nnc(SCC#CCOC(=O)c2ccc(Br)cc2)s1,-1.33
7,Cc1ccc(CS(=O)(=O)Cc2ccc(C(=O)NCCCN3CC(C)CC(C)C3)o2)cc1 (stereo not shown),3.59
8,COc1ccccc1NC(=O)C1=C(C)N=C2CCCC(O)=C2C1c1cccc(OC)c1OC (stereo not shown),0.726
9,NC(=O)C1CCN(Cc2ccccc2F)CC1,0.0792
10,Cc1ccc(SCC(=O)Nc2ccc(C)cc2C)cc1,-6.38
11,O=C1CCCc2c1nc(-c1cccc(F)c1)n2O,0.215
12,O=C(NC1CCCC1)NS(=O)(=O)c1ccccc1Cl,-4.61
13,O=c1cc(NCCc2ccccc2)c2ccccc2o1,-5.4
14,CN(c1ccc(C(=O)N2CCC(Cc3ccccc3)CC2)cc1)S(C)(=O)=O,-0.95
15,O=C(Nc1ccc(CN2CCOCC2)cc1)c1cc(Cl)ccc1Cl,-2.37
16,CC(C)N(Cc1nc(-c2ccc(Cl)cc2)no1)C(=O)C1CCCCC1,-0.646
17,CSC1=C(C#N)C(C)C2=C(O)CC(C)(C)CC2=N1 (stereo not shown),2.76
18,CC1CCN(S(=O)(=O)c2ccc(NC(=O)CCCc3ccccc3)cc2)CC1,-2.45
19,COc1ccc(-c2ccc3c(N)c(C(=O)Nc4cc(OC)c(OC)c(OC)c4)sc3n2)cc1,5.03
20,COc1ccc(CNC(=O)C2CCCN(c3nc4ccccc4o3)C2)c(OC)c1 (stereo not shown),0.387
21,CN(C(=O)CSc1nncn2c1cc1sccc12)C1CCCCC1,-10.9
22,COC(=O)c1cn(C(=O)c2ccc(Cl)cc2Cl)c2ccccc12,-2.65
23,CCOc1ccc(CCNCc2c(C(=O)O)n(C)c3cc(OC)ccc23)cc1OCC,-2.68
24,O=C1OC(/C=C/c2cccc(Cl)c2Cl)=NC/1=C/c1ccc2c(c1)OCO2,9.52
25,OC(COc1cccc(OCC(O)CN2CCCCC2)c1)CN1CCCCC1 (stereo not shown),-1.6

row,Compound,% Inhibition @ 10 uM [%]
1,COc1ccc(-c2nc(N3CCOCC3)nc3nn4c(C)cc(C)nc4c23)cc1,-3.27
2,Cc1ccc(C(=O)C2=C(O)C(=O)NC2c2ccccc2)cc1 (stereo not shown),-5.27
3,CCOC(=O)C(O)(c1ccc(C2CC2C2CC2)o1)C(F)(F)F (stereo not shown),0.962
4,CCOc1ccc2c(c1)c(C(C)=O)c(C)n2CCc1ccccc1,-3.28
5,CCOc1ccc(N2CN=C3SCC(=O)N3C2)cc1,-3.77
6,COC(=O)c1cccc(Oc2ccc([N+](=O)[O-])cc2)c1,4.42
7,CCc1c(O)n(C2CCCCC2)c(SCc2ccccc2)nc1=O,0.815
8,CSc1ccc(-c2nnn(CC(=O)NCc3ccccc3)n2)cc1,2.57
9,CN1C(=O)c2ccccc2C(C(=O)NCCc2ccc(Cl)cc2)C1c1cccs1 (stereo not shown),-2.4
10,COC(=O)c1ccc(OCC2c3cc(OC)c(OC)cc3CCN2C(=O)Cc2ccc(F)cc2)cc1 (stereo not shown),2.21
11,CN1C(C(=O)Nc2cnn(C34CC5CC(CC(C5)C3)C4)c2)=CC(c2ccco2)=NS1(=O)=O,3.92
12,Cc1ccc(NC(=O)CN2CC(c3ccccc3)CC2=O)cc1C (stereo not shown),-10.5
13,Clc1ccc(OCCCCn2ccnc2)cc1,-4.3
14,CC(C)C[C@H](NC(=O)OCc1ccccc1)C(=O)N[C@H](C#N)Cc1c[nH]c2ccccc12,1.71
15,CCc1ccc(CN2CCCC(C(=O)N3CCCCC3)C2)cc1 (stereo not shown),2.04
16,N#Cc1ccc(NC(=O)CS(=O)(=O)Cc2ccccc2)cc1,3.62
17,O=C1C2C3C=CC(C3)C2C(=O)N1c1ccc(N2C(=O)C3C4C=CC(C4)C3C2=O)c(Cl)c1 (stereo not shown),2.13
18,CCc1noc(C(=O)[C@H](CC)NC(=O)[C@H](CC2CCCC2)NC2=NS(=O)(=O)c3ccccc32)n1,-4.82
19,COC(=O)c1cc(S(=O)(=O)NCc2cccnc2)c[nH]1,0.867
20,CC(=O)c1ccc(N/C=C/C(=O)c2ccc(Br)cc2)cc1,-6.87
21,COc1ccc(Cl)cc1NC(=O)CC1S/C(=N\C2CCCCC2)N(C)C1=O (stereo not shown),-2.58
22,O=C(CCn1ccc2cc(S(=O)(=O)N3CCCC3)ccc21)NC1CCCCCC1,4.65
23,C=CC1CN2CCC1CC2c1[nH]c2ccccc2c1CCO (stereo not shown),-2.85
24,CCOC(=O)c1[nH]c(C)c(C(=O)c2cccs2)c1C,-6.07
25,COC(=O)c1cc2ccsc2n1Cc1cccc(F)c1,-3.67

row,Compound,% Inhibition @ 10 uM [%]
1,Cc1ccc2c(Cl)c(C(=O)NC3=NCCS3)sc2c1,0.726
2,CC(C)=CCC/C(C)=C/CN1CCN(c2ccccc2Cl)CC1,3.48
3,O=S(=O)(NCCc1nnc2ccc(SCc3cccnc3)nn12)c1ccccc1,-6.82
4,O=C(O)C1CSC(c2ccccc2Cl)N1C(=O)c1ccc(Cl)cc1 (stereo not shown),-1.16
5,Cc1nn(CC(=O)N2CCN(C(=O)c3ccco3)CC2)c(=O)c2cc3sccc3n12,0.137
6,O=C(NCCCN1CCOCC1)c1ccccc1Br,0.58
7,CC(C)CCNc1nc2c(c(=O)[nH]c(=O)n2C)n1CC(O)COC(C)C (stereo not shown),-8.72
8,O=C(NCCN1CCc2ccccc2C1)c1cc(-c2cccs2)nc2ccccc12,-6.54
9,CC1c2nc3ccccc3n2C(CC(=O)NCCc2ccc(Cl)cc2)C(=O)N1Cc1ccccc1 (stereo not shown),9.33
10,CCOc1ccc(CC(=O)Nc2cc(C)ccc2C)cc1OCC,1.27
11,O=C(NCc1cccnc1)c1ccc(Cl)cc1Cl,3.53
12,COC(=O)C1=C(C)N=C2SCCC(=O)N2C1c1ccc(Cl)cc1Cl (stereo not shown),-7.45
13,Cc1ccc2oc(=O)c3cnn(CC(=O)NCc4cccnc4)c3c2c1,-1.7
14,CC(=O)C(Cc1ccc(Cl)cc1)(Cc1ccc(Cl)cc1)C(C)=O,-3.94
15,CC(NC(=S)NC(=O)/C=C/c1ccc(F)cc1)C12CC3CC(CC(C3)C1)C2 (stereo not shown),-3.48
16,CCCC(=O)Nc1ccc(C(=O)Nc2ccc(Br)cc2F)cc1,-0.545
17,O=C(Nc1ccc2oc(-c3cccnc3)nc2c1)C(c1ccccc1)c1ccccc1,10.7
18,CC(=O)c1sc(N2C(=O)c3oc4ccccc4c(=O)c3C2c2ccccc2F)nc1C (stereo not shown),-0.828
19,CN(CC(=O)Nc1c2c(nc3c1CCC3)CCCC2)Cc1ccccc1,-2.65
20,O=C1CSc2ccc(C(=O)N3CCOCC3)cc2N1,-9.6
21,CSC(=O)NC12CC3CC(C1)CC(C(=O)O)(C3)C2,0.215
22,COc1ccc(NC(=O)c2ccc(C(=O)Nc3ccc(OC)cc3OC)nc2)c(OC)c1,5.15
23,CCN(CC)C(=O)Cn1cc(C=C2C(=O)N(C)C(=O)N(C)C2=O)c2ccccc21,-1.26
24,CCOc1cc(/C=C2/SC(=O)N(CC(=O)Nc3ccccc3)C2=O)ccc1O,5.44
25,COc1cccc(C2C(C#N)=C(N)OC3=C2C(=O)CC(C)(C)C3)c1OC (stereo not shown),1.37

row,Compound,% Inhibition @ 10 uM [%]
1,COc1cccc(-n2c(/C=C/c3ccc(O)cc3)nc3ccccc3c2=O)c1,-0.865
2,O=C(O)C1Nc2ccc3ccccc3c2C2C=CCC12 (stereo not shown),14.8
3,Cc1ccc(-n2nnc3c(=O)n(CC(=O)NC4CCCC4)cnc32)cc1,-9.69
4,Cc1nc2ccc(S(=O)(=O)NC(CC(C)C)C(=O)N3CCCCCC3)cc2s1 (stereo not shown),-3.33
5,C=C(C)CN(CC)Cc1ccc([N+](=O)[O-])s1,-3.57
6,Fc1ccccc1NCn1cnc2ccccc21,-3.52
7,CCC[C@H](NC(=O)C1(NC(=O)c2ccc([N+](=O)[O-])cc2)CCCCC1)C(=O)c1nc2ccccc2o1,1.7
8,CC(NC(N)=O)C12CC3CC(CC(C3)C1)C2 (stereo not shown),-7.55
9,Cc1nc2sccn2c(=O)c1S(=O)(=O)Nc1ccc(Br)cn1,-1.68
10,C/C=C1/N=C(S)NN=C1CC,18.9
11,N#CC1=C(N)Oc2cc(N)ccc2C1c1ccc(OCc2ccccc2)cc1 (stereo not shown),1.37
12,COc1ccccc1-n1c(C)cc(/C=C2/C(=N)N3C(c4ccccc4)=CSC3=NC2=O)c1C,0.351
13,Cc1ccc(OCC(=O)Nc2ccc(F)cc2)cc1,5.29
14,Cn1nc(-c2ccc(Cl)cc2)c2cc(C(=O)NCc3cccnc3)sc21,-7.14
15,c1ccc2c(c1)nnn2CN1CCCCCC1,1.76
16,Fc1ccc(N2CCN(Cc3ccccc3F)CC2)cc1,-0.192
17,COc1ccc(NC(=O)c2cnccn2)c(OC)c1,0.316
18,N#Cc1cc2c(=O)n3ccccc3nc2n(Cc2cccnc2)c1=N,1.97
19,CS(=O)(=O)N(CC(=O)N1CCc2ccccc2C1)c1cccc(Br)c1,1.65
20,O=C(NCCc1ccccc1)C(=O)c1c(O)[nH]c2ccccc12,-3.46
21,Nc1ccc2c(c1)C1C=CCC1C(c1ccc(Cl)cc1Cl)N2 (stereo not shown),2.16
22,O=C(Cn1cccc1)N1CCN(Cc2ccccc2)CC1,2.6
23,CCOCCCNC(=O)C1CCCN(c2nnc(C)c3c(C)n(-c4ccc(C)cc4)nc23)C1 (stereo not shown),-3.05
24,Cc1ccc2[nH]c3c(c2c1)CCCC3O (stereo not shown),-1.69
25,COc1ccccc1NC(=O)c1cnc(Nc2nc3ccccc3o2)nc1C,-4.12
